Measured values reported in the supplement of paper PMC8728848.
The other results are listed elsewhere or left out.

Columns and labels:
Assay in all cases: glycan array binding signal (z-score within array); higher = stronger binding
Settings in all cases: glycan notation: IUPAC condensed, linker removed
[1] = molecular target: Neu5Ac(a2-3)Gal(b1-4)GlcNAc(b1-6)GalNAc
How it was run: (§1)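 The binding signal is a Z-score computed within each array and averaged over linkers. Arrays of the same protein sequence at different concentrations or buffers were also averaged together. Data originate from 3228 arrays in the Consortium for Functional Glycomics database, kept only where the protein sequence was available.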

[2] = molecular target: Neu5Ac(a2-3)Gal(b1-4)GlcNAc(b1-6)[Gal(b1-3)]GalNAc
How it was run: as §1

[3] = molecular target: Neu5Ac(a2-3)Gal(b1-4)GlcNAc(b1-6)[Neu5Ac(a2-3)Gal(b1-3)]GalNAc
How it was run: as §1

[4] = molecular target: Neu5Ac(a2-3)Gal(b1-4)GlcNAc6S
How it was run: as §1

[5] = molecular target: Neu5Ac(a2-3)Gal(b1-4)[Fuc(a1-3)]GlcNAc
How it was run: as §1

[6] = molecular target: Neu5Ac(a2-3)Gal(b1-4)[Fuc(a1-3)]GlcNAc(b1-2)Man
How it was run: as §1

[7] = molecular target: Neu5Ac(a2-3)Gal(b1-4)[Fuc(a1-3)]GlcNAc(b1-3)Gal
How it was run: as §1

[8] = molecular target: Neu5Ac(a2-3)Gal(b1-4)[Fuc(a1-3)]GlcNAc(b1-3)Gal(b1-4)GlcNAc
How it was run: as §1

[9] = molecular target: Neu5Ac(a2-3)Gal(b1-4)[Fuc(a1-3)]GlcNAc(b1-3)Gal(b1-4)[Fuc(a1-3)]GlcNAc(b1-3)Gal(b1-4)[Fuc(a1-3)]GlcNAc
How it was run: as §1

[10] = molecular target: Neu5Ac(a2-3)Gal(b1-4)[Fuc(a1-3)]GlcNAc(b1-3)GalNAc
How it was run: as §1

[11] = molecular target: Neu5Ac(a2-3)Gal(b1-4)[Fuc(a1-3)]GlcNAc(b1-6)[Gal(b1-3)]GalNAc
How it was run: as §1

[12] = molecular target: Neu5Ac(a2-3)Gal(b1-4)[Fuc(a1-3)]GlcNAc(b1-6)[Neu5Ac(a2-3)Gal(b1-3)]GalNAc
How it was run: as §1

[13] = molecular target: Neu5Ac(a2-3)Gal(b1-4)[Fuc(a1-3)]GlcNAc6S
How it was run: as §1

[14] = molecular target: Neu5Ac(a2-3)Gal6S(b1-4)GlcNAc
How it was run: as §1

[15] = molecular target: Neu5Ac(a2-3)Gal6S(b1-4)[Fuc(a1-3)]GlcNAc
How it was run: as §1

Neu5Ac(a2-3)GalNAc = molecular target: Neu5Ac(a2-3)GalNAc
How it was run: as §1

[16] = molecular target: Neu5Ac(a2-3)GalNAc(b1-4)GlcNAc
How it was run: as §1

[17] = molecular target: Neu5Ac(a2-3)[GalNAc(b1-4)]Gal(b1-4)Glc
How it was run: as §1

[18] = molecular target: Neu5Ac(a2-3)[GalNAc(b1-4)]Gal(b1-4)GlcNAc
How it was run: as §1

[19] = molecular target: Neu5Ac(a2-3)[GalNAc(b1-4)]Gal(b1-4)GlcNAc(b1-3)GalNAc
How it was run: as §1

[20] = molecular target: Neu5Ac(a2-3)[Neu5Ac(a2-6)]GalNAc
How it was run: as §1

Neu5Ac(a2-6)Gal = molecular target: Neu5Ac(a2-6)Gal
How it was run: as §1

[21] = molecular target: Neu5Ac(a2-6)Gal(b1-3)GlcNAc(b1-3)[Gal(b1-4)GlcNAc(b1-6)]Gal(b1-4)Glc
How it was run: as §1

Neu5Ac(a2-6)Gal(b1-4)Glc = molecular target: Neu5Ac(a2-6)Gal(b1-4)Glc
How it was run: as §1

[22] = molecular target: Neu5Ac(a2-6)Gal(b1-4)GlcNAc
How it was run: as §1

[23] = molecular target: Neu5Ac(a2-6)Gal(b1-4)GlcNAc(b1-2)Man
How it was run: as §1

[24] = molecular target: Neu5Ac(a2-6)Gal(b1-4)GlcNAc(b1-2)Man(a1-3)Man(b1-4)GlcNAc(b1-4)GlcNAc
How it was run: as §1

[25] = molecular target: Neu5Ac(a2-6)Gal(b1-4)GlcNAc(b1-2)Man(a1-3)[Gal(b1-4)GlcNAc(b1-2)Man(a1-6)]Man(b1-4)GlcNAc(b1-4)GlcNAc
How it was run: as §1

[26] = molecular target: Neu5Ac(a2-6)Gal(b1-4)GlcNAc(b1-2)Man(a1-3)[GlcNAc(b1-2)Man(a1-6)]Man(b1-4)GlcNAc(b1-4)GlcNAc
How it was run: as §1

[27] = molecular target: Neu5Ac(a2-6)Gal(b1-4)GlcNAc(b1-2)Man(a1-3)[GlcNAc(b1-4)][Neu5Ac(a2-6)Gal(b1-4)GlcNAc(b1-2)Man(a1-6)]Man(b1-4)GlcNAc(b1-4)GlcNAc
How it was run: as §1

[28] = molecular target: Neu5Ac(a2-6)Gal(b1-4)GlcNAc(b1-2)Man(a1-3)[Man(a1-6)]Man(b1-4)GlcNAc(b1-4)GlcNAc
How it was run: as §1

B1: PX9961J-bvu-499-24-499 (Bacteroides vulgatus) (protein)
chain: LNTDPSTAVPSDDAIKNIDDAQVALNGIYRLASAHSYYGDNYLYYADCRGEDVQARINKGAGRRVSPYYFFDVTADDNFNITLVWNQPYKVIHQANSLIEKLDAGNAGNARPEEVARIKSEALAMRGLALFDLTRLFGMPYTLDNGASLGVPIEIQTTLEDHAPERNTVAQCYEQVLKDLNDALGGLTKEKHDAYMNYWSVKALLSRVYLYMNDNENALKCAEEVINDNGGIYRLFTHDEYPSVWGKDFNSESLFEFYFTMSEPSGGSGGEGAPMVYADNVKDWNNLILTKAYLDLLNEDPEDVRHVFPHLPENAVADTLPVAAKGQPKYLIKYPGKSGSVTDAVSTVNPQDNDLCILRLSEVYLNAAEAAFKIGNTEKALTYLNAIVTRANPAKSVTSADLSLERILKERRKELVGEGHAFFDYMRNGKSVDRSGGWHLTMPEDARVIAPSDPRVALPIPQTEIDANPNIVQNPR
- glycan array binding signal (z-score) [1]: 0.228
- glycan array binding signal (z-score) [2]: -0.033
- glycan array binding signal (z-score) [3]: -0.467
- glycan array binding signal (z-score) [4]: 0.992
- glycan array binding signal (z-score) [5]: -0.732
- glycan array binding signal (z-score) [6]: -0.099
- glycan array binding signal (z-score) [7]: -0.441
- glycan array binding signal (z-score) [8]: -0.556
- glycan array binding signal (z-score) [9]: -0.297
- glycan array binding signal (z-score) [10]: 0.272
- glycan array binding signal (z-score) [11]: -0.279
- glycan array binding signal (z-score) [12]: 1.88
- glycan array binding signal (z-score) [13]: 0.162
- glycan array binding signal (z-score) [14]: -0.275
- glycan array binding signal (z-score) [15]: -0.101
- glycan array binding signal (z-score) (Neu5Ac(a2-3)GalNAc): -0.625
- glycan array binding signal (z-score) [16]: -0.474
- glycan array binding signal (z-score) [17]: -0.277
- glycan array binding signal (z-score) [18]: -0.251
- glycan array binding signal (z-score) [19]: -0.342
- glycan array binding signal (z-score) [20]: -0.372
- glycan array binding signal (z-score) (Neu5Ac(a2-6)Gal): -0.231
- glycan array binding signal (z-score) [21]: -0.441
- glycan array binding signal (z-score) (Neu5Ac(a2-6)Gal(b1-4)Glc): -0.193
- glycan array binding signal (z-score) [22]: -0.389
- glycan array binding signal (z-score) [23]: -0.695
- glycan array binding signal (z-score) [24]: 0.368
- glycan array binding signal (z-score) [25]: 0.647
- glycan array binding signal (z-score) [26]: 0.716
- glycan array binding signal (z-score) [27]: -0.178
- glycan array binding signal (z-score) [28]: -0.88
